# Experimental data reported in PubChem BioAssay AID588342 (National Center for Advancing Translational Sciences (NCATS), 2011).
# About 25,000 (6.9%) of roughly 360,000 compounds were called active. Inconclusive results, whose numbers are uncertain, are shown with a selection of clear calls. Calls come from the whole dose curve; as a rule, active = well fitted inhibition curve with a large enough effect; inconclusive = small, poorly fitted or top-dose-only effect; inactive = flat fitted curve, though single readings scatter. Potencies beside an inconclusive call are fits to weak or partial responses and may not hold up.
# Target: Luciferin 4-monooxygenase (Photinus pyralis) (UniProt P08659)
# Chain of UniProt P08659 (P08659 whole entry, looked up): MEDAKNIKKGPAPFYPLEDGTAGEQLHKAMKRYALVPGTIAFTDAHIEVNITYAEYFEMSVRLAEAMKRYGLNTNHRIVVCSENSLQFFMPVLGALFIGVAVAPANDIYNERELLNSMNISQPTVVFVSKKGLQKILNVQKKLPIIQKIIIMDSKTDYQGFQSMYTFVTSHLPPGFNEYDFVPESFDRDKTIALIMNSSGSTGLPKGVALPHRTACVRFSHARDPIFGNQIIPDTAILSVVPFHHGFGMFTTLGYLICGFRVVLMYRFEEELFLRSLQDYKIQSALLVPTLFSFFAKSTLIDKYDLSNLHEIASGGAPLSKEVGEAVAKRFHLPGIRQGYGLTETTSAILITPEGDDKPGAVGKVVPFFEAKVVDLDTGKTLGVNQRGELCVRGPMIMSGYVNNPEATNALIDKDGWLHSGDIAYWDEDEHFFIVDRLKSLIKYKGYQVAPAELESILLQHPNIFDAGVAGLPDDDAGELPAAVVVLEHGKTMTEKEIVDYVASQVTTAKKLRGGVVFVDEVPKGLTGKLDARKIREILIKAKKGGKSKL
# Test: qHTS profiling assay for firefly luciferase inhibitor/activator using purifed enzyme and Km concentrations of substrates (counterscreen for miR-21 project); note: nearly all actives have a fitted effect of over 55% in size;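 for activity change, negative = inhibition: plate controls were vehicle for no effect and reference inhibitor for full effect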
# Settings: purified FLuc, luminescence inhibition; activity change, negative = inhibition: at 57.5 µM (top of the series)
# Method in brief: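 Biochemical qHTS of compounds, final roughly 60 µM downward over six points, against 10 nM purified firefly luciferase using Km concentrations of substrates (10 uM D-luciferin, 10 uM ATP) in Tris acetate pH 7.5 buffer; luminescence output.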
# Potency is the fitted concentration of half-maximal effect; tags give direction and shape of the fitted curve.
SMILES,Potency,"activity change, negative = inhibition"
CC(=O)Nc1ccc(NC(=O)c2cc(-c3ccc(C)c(C)c3O)n[nH]2)cc1,active: 5.36 µM,–
COc1ccc(NC(=O)CSc2nnc(-c3ccc(OC)cc3)s2)cc1,"inconclusive: 3.38 µM [inhibitor, partial curve, poor fit]",–
Cc1sc2ncnc(NCC(c3ccccc3)N(C)C)c2c1C (stereo not given),–,inactive: -1.25%
Cc1nonc1C1CCCN1C(=O)c1cc(COc2ccc(F)cc2F)on1 (stereo not given),active: 9.53 µM,–
COc1ccccc1N1CCN(C(=O)c2cc(-c3ccc(Br)cc3)on2)CC1,"inconclusive: 21.3 µM [inhibitor, partial curve, poor fit]",–
COc1ccc(C2=NCC(CSc3nnc(-c4ccc5c(c4)OCO5)o3)S2)cc1 (stereo not given),active: 9.53 µM,–
COc1ccccc1NC(=O)C1CCN(C(=O)c2ccc(C(C)(C)C)cc2)CC1,"inconclusive: 23.9 µM [inhibitor, single point]",–
Cc1sc(C(C2C(=O)CC(C)(C)CC2=O)C2C(=O)CC(C)(C)CC2=O)cc1[N+](=O)[O-],"inconclusive: 13.5 µM [inhibitor, partial curve]",–
CC(C)N(CCNC(=O)c1ccc(OCC2CCCO2)cc1)C(C)C (stereo not given),–,inactive: -1.34%
CC(=O)Oc1ccc(NC(=O)Cc2ccccc2)cc1,"inconclusive: 19 µM [inhibitor, partial curve]",–
O=C(Nc1ccc(Nc2ccccc2)cc1)N1CCOCC1,"inconclusive: 21.3 µM [inhibitor, partial curve, poor fit]",–
COc1ccc(/C=C2\Sc3ccc(C(=O)NCCCN4CCCC4)cc3N(C)C2=O)cc1OC,–,inactive: -7.13%
O=C(NC1=NCCS1)NC12CC3CC(CC(C3)C1)C2,"inconclusive: 21.3 µM [inhibitor, partial curve, poor fit]",–
Clc1cncc(Cl)c1N/N=C/c1ccncc1,"inconclusive: 16.9 µM [inhibitor, partial curve]",–
CCc1nnc(NC(=O)C2CCCN(C(=O)c3ccc(Cl)cc3)C2)s1 (stereo not given),"inconclusive: 19 µM [inhibitor, partial curve]",–
Cc1onc(-c2ccccc2)c1C(=O)N/N=C/c1c(F)cccc1Cl,–,inactive: 4.3%
O=C1NN=COc2ccccc21,"inconclusive: 37.9 µM [inhibitor, partial curve, poor fit]",–
CCn1c2ccccc2c2nnc(SCc3ccccc3)nc21,"inconclusive: 15.1 µM [inhibitor, partial curve, poor fit]",–
O=C1NC2(CCCCC2)C(=O)N1CC(=O)N(Cc1ccccc1)c1ccccc1,–,inactive: 2.12%
CCOc1ccc(C(=O)/C=C/c2ccccc2C(F)(F)F)cc1,active: 5.36 µM,–
O=C(Oc1cccnc1)c1ccc(Cl)c(Cl)c1,"inconclusive: 37.9 µM [inhibitor, partial curve, poor fit]",–
O=C(CSc1nnc(-c2ccc(F)cc2)o1)Nc1ccc(S(=O)(=O)N2CCCC2)cc1,"inconclusive: 16.9 µM [inhibitor, partial curve, poor fit]",–
Cc1ccc(C(=O)Nc2ccc3c(c2)nc(CCNC(=O)c2ccco2)n3C)cc1,"inconclusive: 2.69 µM [inhibitor, full curve]",–
O=C(c1ccccc1-c1nc(-c2ccccc2)no1)N1CCCC1,active: 26.9 µM,–

SMILES,Potency,"activity change, negative = inhibition"
Cc1sc(N/N=C/c2cccnc2)nc1-c1ccccc1,active: 16.9 µM,–
O=C(O)c1ccc(N/N=C/C=C/c2ccccc2)cc1,active: 0.601 µM,–
COc1ccc(-c2cn3cccnc3n2)cc1NC(=O)c1cccs1,"inconclusive: 23.9 µM [inhibitor, partial curve]",–
Nc1nc(SCC(=O)Nc2ccccc2)[nH]c(=O)c1-c1ccccc1,–,inactive: -2.38%
CC(=O)Oc1ccc(Cn2cnc3cc4ccccc4cc32)cc1,"inconclusive: 33.8 µM [inhibitor, partial curve, poor fit]",–
COc1cccc2c1OCC(C(=O)Nc1nccs1)=C2,active: 5.36 µM,–
O=C(NC1CCc2ccccc21)c1cc(COc2c(F)cccc2F)on1 (stereo not given),"inconclusive: 37.9 µM [inhibitor, single point]",–
COc1cc2c(cc1NC(=O)C(C)Sc1cccc[n+]1[O-])oc1ccccc12 (stereo not given),"inconclusive: 23.9 µM [inhibitor, single point]",–
CCOc1ccccc1C(=O)Nc1cc(OC)ccc1OC,"inconclusive: 30.1 µM [inhibitor, partial curve, poor fit]",–
O=C(/C=C/c1ccco1)OCC(=O)c1ccc(OC(F)F)cc1,"inconclusive: 16.9 µM [inhibitor, partial curve, poor fit]",–
Cc1ccc(C)c2[nH]c(=O)c(CN(Cc3ccco3)C(=O)Nc3ccccc3)cc12,"inconclusive: 21.3 µM [inhibitor, partial curve, poor fit]",–
Nc1ccc(SCc2nc3cccc4c3n2CCC4)cc1,"inconclusive: 23.9 µM [inhibitor, partial curve]",–
COc1ccc(-c2nnc(SCC(=O)N3CCc4ccccc4C3)o2)cc1,"inconclusive: 26.9 µM [inhibitor, single point]",–
CCOc1ccc(C(=O)Nc2cccc(NC(=O)c3cccs3)c2)cc1[N+](=O)[O-],"inconclusive: 37.9 µM [inhibitor, partial curve, poor fit]",–
CCOC(=O)c1c(C)[nH]c(C)c1S(=O)(=O)N1CCC(C(=O)NCc2cccc(C)c2)CC1,–,inactive: -7.22%
N#C/C(=C/c1ccc(-c2ccccc2)o1)c1nc(-c2cccs2)cs1,"inconclusive: 9.53 µM [inhibitor, partial curve]",–
Oc1cccc(NC(=S)Nc2ccc(SC(F)F)cc2)c1,"inconclusive: 26.9 µM [inhibitor, partial curve, poor fit]",–
CC(C)(C)C(=O)Nc1nnc2n1CCS2,–,inactive: 0.118%
Cc1c(C(=O)Nc2cccc(C(F)(F)F)c2)oc2ccc(S(=O)(=O)N3CCC4(CC3)OCCO4)cc12,–,inactive: -3.1%
COc1ccccc1C(C)NC(=O)CN(C)CC(=O)Nc1c(C)cccc1C (stereo not given),–,inactive: 3.26%
CCCC(=O)NC(c1ccco1)c1cc([N+](=O)[O-])c2cccnc2c1O (stereo not given),"inconclusive: 10.7 µM [inhibitor, partial curve]",–
CCOc1ccc(NC(=O)c2ccc3c(c2)nnn3C2CCCC2)cc1,–,inactive: -5.33%
O=C(Nc1ccc(Oc2ccccc2)cc1)C1CCCO1 (stereo not given),"inconclusive: 21.3 µM [inhibitor, single point]",–
COc1ccc(S(=O)(=O)Nc2ccccc2C(=O)Nc2nc(-c3ccc(F)cc3)cs2)cc1OC,"inconclusive: 30.1 µM [inhibitor, single point]",–

SMILES,Potency,"activity change, negative = inhibition"
O=C(Nc1nnc(Cc2ccccc2)s1)c1cccs1,"inconclusive: 6.75 µM [inhibitor, full curve]",–
Cc1ccc(-n2nnc(-c3ccnc4ccccc34)n2)cc1,active: 1.9 µM,–
O=C(Nc1ccc2c(c1)OCCO2)c1cc(-c2ccccc2)nc2ccccc12,"inconclusive: 19 µM [inhibitor, single point]",–
Cc1ccc(CNC(=O)C2CCC(=O)N(CCc3ccc(Cl)cc3)C2)cc1 (stereo not given),"inconclusive: 23.9 µM [inhibitor, partial curve]",–
O=C1C2C3C=CC(C2C(=O)N1C1CCCCC1)C1C2C(=O)N(C4CCCCC4)C(=O)C2C31 (stereo not given),–,inactive: -0.992%
N#Cc1c(Nc2ccccc2Cl)s[nH]c1=O,"inconclusive: 26.9 µM [inhibitor, partial curve, poor fit]",–
Cc1ccc(Cl)cc1N1CCN(S(=O)(=O)c2ccc3[nH]c(=O)c(=O)[nH]c3c2)CC1,"inconclusive: 37.9 µM [inhibitor, partial curve, poor fit]",–
CC(=O)Nc1ccc(OCCOc2ccc([N+](=O)[O-])cc2)cc1,"inconclusive: 23.9 µM [inhibitor, partial curve, poor fit]",–
COc1ccccc1C(=O)Nc1nnc(CCc2ccccc2)s1,"inconclusive: 26.9 µM [inhibitor, partial curve, poor fit]",–
CC1(C(=O)O)CCC(C(=O)Nc2ccc(F)cc2)C1(C)C (stereo not given),–,inactive: 0.162%
CC1CCc2c(sc(NC(=O)c3ccc(Cn4cc([N+](=O)[O-])cn4)o3)c2C#N)C1 (stereo not given),active: 13.5 µM,–
Cc1c(Cl)cccc1NC(=O)C1CCCN(C(=O)c2cnn(-c3ccccc3)c2-n2cccc2)C1 (stereo not given),–,inactive: -17.5%
Fc1ccccc1COc1ccc(/C=N/n2cnnc2)cc1,–,inactive: -19.3%
NC(=O)c1ccc(NC(=O)COC(=O)CCCN2C(=O)c3cccc4cccc(c34)C2=O)cc1,"inconclusive: 4.26 µM [inhibitor, partial curve, poor fit]",–
Cc1[nH]c(=O)[nH]c(=O)c1NC(=O)CSc1ncccc1-c1nc2ccccc2[nH]1,"inconclusive: 37.9 µM [inhibitor, single point]",–
N/C(=N\c1nc2ccccc2o1)NC(=O)c1ccc(F)cc1,"inconclusive: 13.5 µM [inhibitor, partial curve, poor fit]",–
CCCCOc1ccc(N2CC(C(=O)NCCc3ccc(OC)c(OC)c3)CC2=O)cc1 (stereo not given),–,inactive: -0.565%
COc1cc(N)c(Cl)cc1C(=O)OCC(=O)N(C)C1CCCCC1,"inconclusive: 37.9 µM [inhibitor, partial curve, poor fit]",–
COC(=O)c1ccc(N2CCC(C)CC2)c(N)c1,active: 12 µM,–
COc1cccc(C(=O)Nc2cccc(NC(C)=O)c2)c1,"inconclusive: 37.9 µM [inhibitor, single point]",–
Cc1ccc(-n2cc(C(=O)c3ccc(F)cc3)nn2)cc1Cl,active: 0.239 µM,–
Cc1ccc(C)c(OCc2ccc(C(=O)NN)o2)c1,"inconclusive: 23.9 µM [inhibitor, partial curve]",–
